{"source": "PubChem BioAssay AID485294", "about": "(National Center for Advancing Translational Sciences (NCATS), 2010)", "note": "Out of some 370,000 compounds screened, about 150 (0.041%) were called active. The inconclusive results got no clear call from the source; some entries with a clear call stand among them for comparison. Calls follow the shape of the dose curve; as a rule, active = well fitted inhibition curve with a large enough effect; inconclusive = small, poorly fitted or top-dose-only effect; inactive = flat fitted curve, though single readings scatter. Potencies of inconclusive entries are left out as doubtful fits. Potency is read from the fitted curve at half-maximal effect; tags tell the direction and shape of the fitted curve.", "data": [{"biological_target": "Beta-lactamase (Escherichia coli (strain K12)) (UniProt P00811)", "sequence (P00811 whole entry, looked up)": "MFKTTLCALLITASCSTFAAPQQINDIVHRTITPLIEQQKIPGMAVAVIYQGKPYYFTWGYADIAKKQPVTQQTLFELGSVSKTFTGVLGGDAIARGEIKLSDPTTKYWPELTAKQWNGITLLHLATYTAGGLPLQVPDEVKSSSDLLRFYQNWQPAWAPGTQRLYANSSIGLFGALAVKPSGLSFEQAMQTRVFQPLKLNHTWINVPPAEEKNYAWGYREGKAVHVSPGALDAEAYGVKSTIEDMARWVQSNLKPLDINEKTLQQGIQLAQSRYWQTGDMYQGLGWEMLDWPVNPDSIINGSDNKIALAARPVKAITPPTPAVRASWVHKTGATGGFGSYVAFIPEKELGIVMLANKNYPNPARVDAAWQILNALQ", "assay": "qHTS Inhibitors of AmpC Beta-Lactamase (assay with detergent); also: nearly all actives have a fitted effect of over 25% in size;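 as to activity change, negative = inhibition: 0% = no-compound wells and -100% = no-enzyme wells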", "details": "AmpC hydrolysis of nitrocefin, absorbance 480 nm, 0.01% Triton; activity change, negative = inhibition: at 114 µM (top of the series)", "summary_of_the_method": "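20 mM phosphate pH 7.0 + 0.01% (detergent screen) or 0.0001% Triton X-100; 5.3 nM AmpC reagent; cpd preinc 15 min RT; nitrocefin (800 uM stock) to start; A480 q20 s × 4 min; Activity was normalised to no-enzyme and no-compound control wells.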", "values": [{"smiles": "O=C(C(NS(=O)(=O)c1cccc2nsnc12)c1ccccc1)N1CCN(c2ccccn2)CC1", "note": "(stereo not drawn)", "Potency": "inconclusive [inhibitor, full curve, poor fit]"}, {"smiles": "CCCCn1nc(C(=O)Nc2ccc(S(=O)(=O)Nc3ncccn3)cc2)c2ccccc2c1=O", "Potency": "inconclusive [inhibitor, single point]"}, {"smiles": "CC1CCC2C(=O)N(c3cc(Cl)ccc3OC(=O)c3ccco3)C(=O)C2C1", "note": "(stereo not drawn)", "Potency": "inconclusive [inhibitor, full curve, poor fit]"}, {"smiles": "CCn1ccc2cc(S(=O)(=O)N3CCCN(C(=O)Nc4ccccc4F)CC3)ccc21", "activity change, negative = inhibition": "inactive: -4.61%"}, {"smiles": "OC(COCC1COc2ccccc2O1)CN1CCN(c2ccccn2)CC1", "note": "(stereo not drawn)", "Potency": "inconclusive [inhibitor, full curve, poor fit]"}, {"smiles": "CC(NC(=O)[C@@H](NC(=O)[C@@H]1Cc2ccccc2CN1)C(C)C)c1ccccc1", "note": "(stereo partly drawn)", "activity change, negative = inhibition": "inactive: 2.39%"}, {"smiles": "CS(=O)(=O)N1CCC(C(=O)NCc2ccncc2)CC1", "Potency": "inconclusive [inhibitor, single point]"}, {"smiles": "COC(=O)CCc1sc(Nc2ccc(Br)cc2)nc1-c1ccc(OC)cc1", "Potency": "inconclusive [inhibitor, full curve, poor fit]"}, {"smiles": "COc1ccc(-c2noc(COc3ccccc3OC)n2)cc1OC", "Potency": "inconclusive [inhibitor, full curve, poor fit]"}, {"smiles": "Cc1cc(C(=O)c2cnc(/N=C/N(C)C)s2)cc(C)c1O", "Potency": "inconclusive [inhibitor, partial curve]"}, {"smiles": "CCCCOc1ccc(CN2CCN(CC)CC2)cc1", "Potency": "inconclusive [inhibitor, partial curve]"}, {"smiles": "CCn1cc([N+](=O)[O-])c(C(=O)Nc2c(C)nn(Cc3cccc(F)c3)c2C)n1", "activity change, negative = inhibition": "inactive: 1.08%"}, {"smiles": "Cc1ccc(S(=O)(=O)N2CCC(C(=O)N3CCN(Cc4ccccc4)CC3)CC2)cc1", "Potency": "inconclusive [inhibitor, partial curve, poor fit]"}, {"smiles": "Cc1c(Cl)cccc1NC(=O)NCc1cccnc1", "Potency": "inconclusive [inhibitor, full curve, poor fit]"}, {"smiles": "CCOC(=O)c1cccc(NC(=O)CS(=O)(=O)Cc2nc(-c3cccc(OC)c3)oc2C)c1", "Potency": "inconclusive [inhibitor, partial curve]"}, {"smiles": "O=C(CNC(=S)N(Cc1ccc(F)cc1)C1CCCCC1)NCCN1CCOCC1", "Potency": "inconclusive [inhibitor, full curve, poor fit]"}, {"smiles": "CCOC(=O)N1CCC(c2cc(=O)n3[nH]c(-c4ccccc4)cc3n2)CC1", "Potency": "inconclusive [inhibitor, partial curve]"}, {"smiles": "Cc1cc(C)cc(C(=O)N2CC(=O)Nc3ccc(C)cc3C2c2ccccc2)c1", "note": "(stereo not drawn)", "activity change, negative = inhibition": "inactive: -1.27%"}, {"smiles": "CCCc1nc2sc3ccccc3c(=O)c2c(=O)n1CCOC", "Potency": "inconclusive [inhibitor, partial curve]"}, {"smiles": "Cc1nc(SCC(=O)N(CC(C)C)C2CCS(=O)(=O)C2)c(C#N)c(C)c1C", "note": "(stereo not drawn)", "Potency": "inconclusive [inhibitor, full curve, poor fit]"}, {"smiles": "CCOC(=O)c1cc2c(=O)n3cccc(C)c3nc2n(CCOC)c1=NC(C)=O", "activity change, negative = inhibition": "inactive: -8.25%"}, {"smiles": "S=c1[nH]nc(CCc2ccccc2)n1-c1ccc(Cl)cc1", "Potency": "inconclusive [inhibitor, full curve, poor fit]"}, {"smiles": "COc1ccccc1NC(=S)NC(=O)CC(C)C", "activity change, negative = inhibition": "inactive: -0.899%"}, {"smiles": "CCNc1ccc(C(=O)N/N=C/c2c(C)nn(-c3ccccc3)c2N2CCCC2)cc1[N+](=O)[O-]", "Potency": "inconclusive [inhibitor, partial curve, poor fit]"}, {"smiles": "O=C(O)c1ccc(-c2ccccc2C(F)(F)F)o1", "Potency": "inconclusive [inhibitor, full curve, poor fit]"}, {"smiles": "N/C(=N\\O)c1cn(Cc2ccccc2Cl)c2ccccc12", "Potency": "inconclusive [inhibitor, full curve, poor fit]"}, {"smiles": "O=C(O)/C=C/C(=O)NC1CCCCC1", "Potency": "inconclusive [inhibitor, full curve, poor fit]"}, {"smiles": "CN(C)C(=O)N(CCCN1CCOCC1)Cc1cccc2ccccc12", "activity change, negative = inhibition": "inactive: -6.07%"}, {"smiles": "Cn1c(SCC(=O)c2ccc3c(c2)NC(=O)CO3)nc2ccccc21", "activity change, negative = inhibition": "inactive: -0.184%"}, {"smiles": "CC1(C)N=C(SCC(=O)Nc2ccc(Cl)cc2)C(c2ccccc2)=N1", "Potency": "inconclusive [inhibitor, full curve, poor fit]"}, {"smiles": "O=C(OCC(=O)N1CCc2ccccc21)c1c2c(nc3ccccc13)CCCC2", "activity change, negative = inhibition": "inactive: 10.1%"}, {"smiles": "COc1cc(C)c(C(C)C)cc1S(=O)(=O)N1CCN(C)CC1", "Potency": "inconclusive [inhibitor, full curve, poor fit]"}, {"smiles": "CCCCc1cc(=O)oc2cc(C)cc(OCC(=O)Nc3cccnc3)c12", "activity change, negative = inhibition": "inactive: 0.32%"}, {"smiles": "CCc1cccc2sc(N3CCN(C(=O)C4CC4)CC3)nc12", "activity change, negative = inhibition": "inactive: 5.15%"}, {"smiles": "Cc1cc(NC(c2nnc(-c3ccccc3)o2)c2ccccc2F)ccc1Br", "note": "(stereo not drawn)", "activity change, negative = inhibition": "inactive: 23.4%"}, {"smiles": "CN1CCN(c2ncnc3c2cnn3-c2ccc(Cl)cc2)CC1", "Potency": "inconclusive [inhibitor, partial curve]"}, {"smiles": "NC(=O)C1(N2CCCCC2)CCN(C(=O)CSc2nc(C(F)(F)F)cc(=O)[nH]2)CC1", "Potency": "inconclusive [inhibitor, full curve]"}, {"smiles": "O=S(=O)(Nc1cccc2cn[nH]c12)c1ccc(F)cc1", "activity change, negative = inhibition": "inactive: 1.09%"}, {"smiles": "CC(Oc1cccc(Cl)c1)C(=O)Nc1ccc(S(=O)(=O)N(C)C2CCN(C)CC2)cc1", "note": "(stereo not drawn)", "Potency": "inconclusive [inhibitor, full curve, poor fit]"}, {"smiles": "COc1ccc2cc(CCNC(=O)C(C)(C)C)c(=O)[nH]c2c1", "Potency": "inconclusive [inhibitor, full curve, poor fit]"}, {"smiles": "CCOc1cc(OCC)cc(C(=O)NCc2ccco2)c1", "Potency": "inconclusive [inhibitor, full curve]"}, {"smiles": "CC[C@H](C)/C=C(C)/C=C/C1=CC2=CC(=O)[C@]3(C)OC(=O)[C@@H](C(C)=O)[C@@H]3C2=CO1", "activity change, negative = inhibition": "inactive: 6.54%"}, {"smiles": "CCCCN(C(=O)c1cccc(S(=O)(=O)N2CCCCC2)c1)C1CCS(=O)(=O)C1", "note": "(stereo not drawn)", "Potency": "inconclusive [inhibitor, full curve, poor fit]"}, {"smiles": "CCCCCCCC(=O)Nc1cc(C(=O)NCCC)ccc1N1CCC2(CC1)CC(c1cccc(Br)c1)=NO2", "Potency": "inconclusive [inhibitor, single point]"}, {"smiles": "CCOc1ccc(S(=O)(=O)N2CCOCC2)cc1NC(=O)CN1C(=O)NC2(CCCC2)C1=O", "Potency": "inconclusive [inhibitor, partial curve, poor fit]"}, {"smiles": "COC(=O)C(C(C)=O)C1=C/C(=N\\S(=O)(=O)c2ccc(C)cc2)c2ccccc2C1=O", "note": "(stereo not drawn)", "Potency": "inconclusive [inhibitor, full curve]"}, {"smiles": "Cc1onc(-c2ccccc2Cl)c1C(=O)Nc1cnn(Cc2ccccc2)c1", "Potency": "inconclusive [inhibitor, partial curve]"}, {"smiles": "COc1ccc(-c2nc3n(n2)C(c2ccccc2F)C(C(=O)Nc2cccnc2)=C(C)N3)cc1OC", "note": "(stereo not drawn)", "activity change, negative = inhibition": "inactive: 18.9%"}, {"smiles": "CCOC(=O)c1sc(Nc2ccc(C)cc2C)nc1C", "activity change, negative = inhibition": "inactive: 0.117%"}, {"smiles": "O=C(N/N=C/c1ccccc1O)C1CC(=O)N(c2ccc(F)cc2)C1", "note": "(stereo not drawn)", "activity change, negative = inhibition": "inactive: 3.17%"}, {"smiles": "Cn1c(=O)oc2cc(S(=O)(=O)NCc3ccc(F)cc3)ccc21", "Potency": "inconclusive [inhibitor, partial curve]"}, {"smiles": "S=C1NCN(Cc2cccnc2)CN1c1cccc2ccccc12", "activity change, negative = inhibition": "inactive: 1.77%"}, {"smiles": "O=C(c1ccc(-c2ccccc2)cc1)N1CCN(c2ccccc2F)CC1", "Potency": "inconclusive [inhibitor, partial curve]"}, {"smiles": "CCN(CC(=O)Nc1c(F)cccc1F)C(=O)CN1C(=O)NC2(CCCC2)C1=O", "Potency": "inconclusive [inhibitor, full curve, poor fit]"}, {"smiles": "CCCn1c(C)cc(C(=O)CSc2nc3ccccc3c(=O)n2Cc2ccco2)c1C", "Potency": "inconclusive [inhibitor, full curve, poor fit]"}, {"smiles": "Cc1ccc(-n2c(SCC(=O)N3CCOCC3)nnc2-c2ccncc2)cc1", "Potency": "inconclusive [inhibitor, full curve, poor fit]"}, {"smiles": "CCn1c(CNC(=O)c2cccs2)nnc1SCC(=O)Nc1ccc(Cl)cc1", "activity change, negative = inhibition": "inactive: -11.7%"}, {"smiles": "Cc1ccc(S(=O)(=O)N2CC3CC(C2)c2cccc(=O)n2C3)cc1", "note": "(stereo not drawn)", "activity change, negative = inhibition": "inactive: -2.46%"}, {"smiles": "CN(C(=O)CSc1nc2ccccc2n1CC(=O)NCc1ccc(F)cc1)c1ccc(F)cc1", "activity change, negative = inhibition": "inactive: -10.7%"}, {"smiles": "COC(=O)C(/C=N/O)NC(=O)c1ccccc1", "note": "(stereo not drawn)", "Potency": "inconclusive [inhibitor, full curve, poor fit]"}, {"smiles": "O=C(CSc1ncnc2ccccc12)N1CCCC1", "Potency": "inconclusive [inhibitor, partial curve, poor fit]"}, {"smiles": "COc1ccccc1-n1cnc2cc(C(=O)NCCCN3CCOCC3)ccc21", "activity change, negative = inhibition": "inactive: -8.32%"}, {"smiles": "CSc1ccc(S(=O)(=O)NCC(=O)OCC(=O)N(Cc2ccccc2)C(C)C)cc1[N+](=O)[O-]", "activity change, negative = inhibition": "inactive: -19.8%"}, {"smiles": "CCNC(=O)Nc1nc2ccccc2s1", "activity change, negative = inhibition": "inactive: 1.85%"}, {"smiles": "CC1(C(=O)NC23CC4CC(CC(C4)C2)C3)CC1(Cl)Cl", "note": "(stereo not drawn)", "Potency": "inconclusive [inhibitor, single point]"}, {"smiles": "N#Cc1nc(-c2ccc(F)cc2)oc1NCCN1CCOCC1", "Potency": "inconclusive [inhibitor, partial curve]"}, {"smiles": "CCn1c(NC(=O)Nc2cccc(C)c2C)cc2sccc21", "Potency": "inconclusive [inhibitor, partial curve, poor fit]"}, {"smiles": "CCCCN(Cc1ccccc1)S(=O)(=O)c1ccc2c(c1)CC(C)N2C(=O)CC", "note": "(stereo not drawn)", "activity change, negative = inhibition": "inactive: 0.35%"}]}]}
